In paper PMC12420824, “Discovery of a selective alpha-kinase 1 inhibitor for the rare genetic disease ROSAH syndrome” (Nature Communications, 2025) one finds IC50 data, which are given here for one compound.

The target of assay [1] is T1, CAMK1a (Homo sapiens, UniProt Q14012).
T1 construct: purchased Reaction Biology (assay service; panel enzyme)
Nature of the assay: HotSpot kinase assay. The assay is classed as biochemical. The following applies: 10-dose, ATP 10 µM.

The target in assay [2] is T2, CAMK2g (Homo sapiens, UniProt Q13555).
T2 construct: purchased Reaction Biology (assay service; panel enzyme)
Nature of the assay: HotSpot kinase assay. The following applies: 10-dose, ATP 10 µM. The assay is classed as biochemical.

Structures are written as SMILES. Where two headings read alike, the source gives them in different places.

As for `C#C[C@@](C)(c1ccc(Cl)cc1)c1csc(NC(=O)c2c(F)cc(N3CCNCC3)cc2F)n1` (stereo in doubt) [DF-003], the IC50 stood at 4600 nM in assay [1] (read-out: IC50), 4600 nM in assay [1] (DF-003 IC50 (nM)), 3100 nM in assay [2] (read-out: IC50) and 3100 nM in assay [2] (DF-003 IC50 (nM)).

As usually defined, the IC50 is the concentration that inhibits the measured activity by half.
